PubChem BioAssay AID1468 (National Center for Advancing Translational Sciences (NCATS), 2008)
Where “and” joins values, the source holds several entries; their conditions need not be identical. Equal values may be shown once. In all, about 280,000 compounds went through this assay and about 1,100 (0.39%) were called active. The inconclusive results got no clear call from the source; some entries with a clear call stand among them for comparison. Calls follow the shape of the dose curve; as a rule, active = well fitted inhibition curve with a large enough effect; inconclusive = small, poorly fitted or top-dose-only effect, or effect the other way; inactive = flat fitted curve, though single readings scatter. A potency beside an inconclusive call is a rough fit, not a confirmed value.

molecular target: Microtubule-associated protein tau (Homo sapiens) (UniProt P10636); test: qHTS for Inhibitors of Tau Fibril Formation, Fluorescence Polarization; settings: K18 P301L tau heparin fibrillization, Alexa594 FP, 6 h; series mostly up to 57.7 µM; also: nearly all actives have a fitted effect of over 55% in size
In short: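 Human tau K18 […] P301L fragment, 15 uM unlabeled plus 0.24 uM Alexa 594-labeled tau (final), with compound and 20 uM heparin in 100 mM sodium acetate pH 7; 6 hr at 37 C, then Alexa 594 FP read.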
Potency is read from the fitted curve at half-maximal effect; tags tell the direction and shape of the fitted curve.

Chain of UniProt P10636 (P10636 whole entry, looked up, the tested form may be a part): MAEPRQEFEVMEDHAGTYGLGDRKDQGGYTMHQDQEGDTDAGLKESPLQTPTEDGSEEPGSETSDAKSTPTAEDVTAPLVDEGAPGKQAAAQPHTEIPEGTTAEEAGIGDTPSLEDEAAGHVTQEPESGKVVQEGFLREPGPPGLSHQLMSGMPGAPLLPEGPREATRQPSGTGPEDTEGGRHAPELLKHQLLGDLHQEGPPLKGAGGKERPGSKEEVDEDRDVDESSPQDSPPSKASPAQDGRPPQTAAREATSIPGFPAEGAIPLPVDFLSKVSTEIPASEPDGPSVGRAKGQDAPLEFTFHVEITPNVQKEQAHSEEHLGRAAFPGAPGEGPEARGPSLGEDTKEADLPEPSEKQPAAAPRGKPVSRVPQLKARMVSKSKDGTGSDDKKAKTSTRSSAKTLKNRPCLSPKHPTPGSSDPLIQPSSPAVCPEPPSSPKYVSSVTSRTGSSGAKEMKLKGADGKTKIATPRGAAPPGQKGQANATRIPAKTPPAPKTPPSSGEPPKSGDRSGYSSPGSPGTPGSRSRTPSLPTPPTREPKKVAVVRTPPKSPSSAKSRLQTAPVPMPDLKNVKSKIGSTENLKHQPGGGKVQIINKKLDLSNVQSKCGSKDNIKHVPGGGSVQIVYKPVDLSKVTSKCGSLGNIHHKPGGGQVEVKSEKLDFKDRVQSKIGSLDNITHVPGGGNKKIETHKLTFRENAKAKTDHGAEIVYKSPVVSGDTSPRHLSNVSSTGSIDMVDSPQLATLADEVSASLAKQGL

Compound | Potency
CC(=O)N1CC[n+]2c(-c3ccc(Cl)cc3Cl)csc21 | inconclusive: 28.2 µM [inhibitor, single point]
Cc1onc(-c2ccccc2Cl)c1C(=O)Nc1sc2c(c1C#N)CCC2 | inconclusive: 39.8 µM [inhibitor, single point]
CC(=O)Nc1cc(C(=O)NCc2ccco2)ccc1Sc1ccc(Cl)cc1 | inactive
COc1ccc2nc3sc(C(=O)NCCN4CCc5ccccc5C4)cc3cc2c1 | inconclusive: 7.94 µM [inhibitor, full curve, poor fit]
CC(=O)c1ccc(N2CCN(C(=O)COc3ccc(F)cc3)CC2)c(F)c1 | inactive
O=C(NCc1cccc(F)c1)c1cccc(NC(=O)c2nsc3ccccc23)c1 | inconclusive: 8.91 µM [inhibitor, partial curve]
CCc1ccc(Nc2nc(N)nc(CSc3nc4ccccc4s3)n2)cc1 | inconclusive: 10 µM [inhibitor, partial curve] and inconclusive: 25.1 µM [inhibitor, partial curve]
C=Cc1c(C)c2cc3[nH]c(cc4nc(cc5nc(cc1[nH]2)C(C)=C5CCC(=O)O)C(CCC(=O)O)=C4C)c(C)c3C=C | active: 11.2 µM and active: 25.1 µM
O=C1OCC2=C1C(c1ccc(F)cc1)c1cc3c(cc1N2)OCCO3 (centres undefined) | inconclusive: 35.5 µM [inhibitor, single point]
Cc1[nH]c(=O)[nH]c(=O)c1S(=O)(=O)N1CCCC(C(=O)NCCc2ccc(Cl)cc2)C1 (centres undefined) | inconclusive: 39.8 µM [inhibitor, single point]
CCC(C(=O)Nc1cc(-c2nc3cccnc3s2)ccc1C)c1ccccc1 (centres undefined) | inactive
CC(C)N(C(=O)Nc1ccc2nsnc2c1)C(C)C | inconclusive: 39.8 µM [inhibitor, single point]
COc1cccc(CNC(=O)C2CCN(c3nnc(-n4c(C)ccc4C)s3)CC2)c1 | inconclusive: 39.8 µM [inhibitor, single point]
Cc1ccc(NC(=O)CC2S/C(=N/N=C/c3c[nH]c4ccccc34)NC2=O)cc1 (centres undefined) | inconclusive: 0.141 µM [activator, full curve]
Fc1ccc(-c2cn3cc(Cc4ccc(Cl)cc4)sc3n2)cc1 | inconclusive: 14.1 µM [inhibitor, partial curve, poor fit]
CCC(CC)C(=O)Nc1cccc(-c2nc3ccccc3s2)c1 | inconclusive: 28.2 µM [inhibitor, partial curve, poor fit]
COC(=O)c1[nH]c2cc(C)ccc2c1NC(=O)CN1CCOCC1 | inactive
COc1ccc(/C=N/OCC(=O)Nc2nc3ccccc3s2)cc1 | inconclusive: 31.6 µM [inhibitor, single point]
COC(=O)c1cc2oc3ccccc3c2n1Cc1cc(C)ccc1C | inactive
COc1ccc(-c2cn3nc(N4CCCC(C(=O)NCc5ccccc5Cl)C4)sc3n2)cc1 (centres undefined) | inactive
O=[N+]([O-])c1cc(C(F)(F)F)cc([N+](=O)[O-])c1NCCNC(=S)Nc1ccc(Cl)c(Cl)c1 | inconclusive: 8.91 µM [inhibitor, partial curve]
Cc1nnsc1C(=O)N/N=C/c1ccc2ccccc2c1O | inconclusive: 22.4 µM [activator, partial curve]

Compound | Potency
CCN1CCN(C(c2cccc(F)c2)c2c(O)cc(C)n(Cc3ccco3)c2=O)CC1 (centres undefined) | inconclusive: 14.1 µM [inhibitor, partial curve]
CNc1cc(CSC)nc(SCc2ccc(Cl)cc2Cl)n1 | inconclusive: 31.6 µM [inhibitor, single point]
CCCCC/C=C\C\C=C/C=C/C=C/[C@@H](O)[C@@H](O)CCCC(=O)O | inactive
Cc1[nH]c2ccccc2c1/C=C(\C#N)S(=O)(=O)c1ccccc1 | inconclusive: 20 µM [inhibitor, partial curve]
N#Cc1c(SCC(=O)Nc2nccs2)nc2c(c1-c1ccco1)CCCC2 | inactive
Cn1c(NNC(=O)c2ccc(C(C)(C)C)cc2)cc(=O)n(C)c1=O | inactive
COc1ccccc1NC(=O)c1ccc(SCC(=O)NCc2ccccc2Cl)c([N+](=O)[O-])c1 | inconclusive: 28.2 µM [activator, single point]
CCOc1ccc(NC(=O)C2C(C(=O)O)C3(Cl)C(Cl)=C(Cl)C2(Cl)C3(Cl)Cl)cc1 (centres undefined) | inactive
Nc1c(C(=O)c2ccc(Cl)cc2)sc2nsc(SCCN3CCOCC3)c12 | inactive
COC(=O)c1c(SC)nc2ccccc2c1OCc1ccccc1C | inconclusive: 22.4 µM [inhibitor, partial curve]
O=C(N/N=C/c1ccc(F)c(F)c1)c1cc2c(s1)-c1ccccc1CC2 | inconclusive: 0.282 µM [inhibitor, full curve, poor fit]
O=C(N/N=C/c1ccccn1)c1cc(-c2ccc(Br)cc2)nc2ccccc12 | inconclusive: 12.6 µM [inhibitor, partial curve, poor fit]
O=C(Nc1ccc(-c2csc(Nc3cccc(C(F)(F)F)c3)n2)cc1)c1ccccc1 | inactive
O=C(CSc1nc2c(oc3ccccc32)c(=O)n1-c1ccccc1F)Nc1ccccc1 | inconclusive: 20 µM [inhibitor, single point]
CNc1ccc(Br)cc(C(=O)/C=C/c2ccc3c(c2)OCO3)c1=O | inconclusive: 20 µM [inhibitor, partial curve]
c1ccc(CSc2nnc(-c3c[nH]c4ccccc34)o2)cc1 | inconclusive: 1.26 µM [inhibitor, partial curve, poor fit]
O=[N+]([O-])c1cc(-c2ccc(C(=S)N3CCOCC3)o2)ccc1Cl | inconclusive: 10 µM [inhibitor, partial curve]
Cc1cccc(C(CC(=O)NCc2ccco2)c2ccccc2)c1O (centres undefined) | inactive
O=S(=O)(c1ccccc1)c1nc(-c2cccs2)oc1SCc1ccccc1F | inconclusive: 17.8 µM [inhibitor, partial curve]
CCC(C)(C)C1CCc2c(sc(NC(=O)C3c4ccccc4Oc4ccccc43)c2C(N)=O)C1 (centres undefined) | inconclusive: 39.8 µM [inhibitor, single point]
Cc1ccccc1NC(=O)CCn1cnc2onc(-c3ccc(F)cc3)c2c1=O | inconclusive: 44.7 µM [inhibitor, single point]
CC(=O)c1ccc(NS(=O)(=O)c2ccc(N/C=C/C(=O)c3ccc(F)cc3)cc2)cc1 | inconclusive: 12.6 µM [inhibitor, partial curve]

Compound | Potency
CCOc1ccc(NC(=O)CCn2cnc3onc(-c4ccc(F)cc4)c3c2=O)cc1 | inconclusive: 17.8 µM [inhibitor, partial curve, poor fit]
Cc1ccc(N2C(=O)[C@@H]3[C@H](C2=O)C2c4ccccc4C=CN2[C@@H]3C(=O)c2ccco2)cc1 (some centres undefined) | inconclusive: 39.8 µM [inhibitor, single point]
CCOC(=O)c1c(-c2ccccc2)oc2ccc(NS(=O)(=O)c3ccc(C)cc3C)cc12 | inconclusive: 8.91 µM [inhibitor, partial curve]
Cc1ccc(NC(=O)c2oc3ccccc3c2NC(=O)c2ccccc2C)cc1 | inconclusive: 35.5 µM [inhibitor, single point]
C=CCN1C(=O)/C(=C/c2ccc(N(C)C)cc2)S/C1=N\c1nnc(CC)s1 | inactive
Cc1ccccc1OCC(=O)Nc1ccc2c(c1)Cc1ccccc1-2 | inactive
O=C(COC(=O)c1ccccc1NC(=O)c1ccco1)Nc1ccc2c(c1)OC(F)(F)O2 | inconclusive: 12.6 µM [inhibitor, partial curve, poor fit]
CSCCC1NC2(C(=O)Nc3c2ccc(Cl)c3C)[C@@H]2C(=O)N(C3CCCC3)C(=O)[C@H]12 (some centres undefined) | inconclusive: 39.8 µM [inhibitor, single point]
COc1cccc(-c2nnc(SCC(=O)NCc3ccc4c(c3)OCO4)n2Cc2ccco2)c1 | inactive
O=C(NCC1CCCO1)C(c1ccc(F)cc1)N(CC1CCCO1)C(=O)c1ccc(-c2ccccc2)[nH]1 (centres undefined) | inactive
Cc1cc(NC(=O)/C=C/c2cccc(F)c2)n(-c2nc3ccccc3[nH]2)n1 | inconclusive: 39.8 µM [inhibitor, single point]
CCn1cc(C(=O)Nc2ccccc2C(=O)OC)c(=O)c2ccc(C)nc21 | inactive
Cc1nc(C)c(-c2ccc(SCC(=O)Nc3ccc(F)c(F)c3)nn2)s1 | inconclusive: 17.8 µM [inhibitor, single point]
COc1cc(/C=C/C(=O)OCC(=O)Nc2ccc(NC(C)=O)cc2)cc(S(=O)(=O)N2CCc3ccccc32)c1OC | inconclusive: 15.8 µM [inhibitor, partial curve, poor fit]
Fc1ccc(Nc2nnns2)cc1 | inconclusive: 28.2 µM [inhibitor, partial curve]
Cn1c(=O)c2c(-c3cccc(Br)c3)n(CCO)cc2n(C)c1=O | inactive
CCOc1ccc(CC(=O)C2C(=O)CC(C)(C)CC2=O)cc1OCC | inconclusive: 22.4 µM [inhibitor, partial curve]
COc1ccc(C(=O)COC(=O)c2cccc(NC(=O)c3ccc(OC)c(OC)c3)c2)cc1 | inconclusive: 8.91 µM [inhibitor, partial curve]
O=C(C1CCCN(S(=O)(=O)Cc2ccccc2)C1)N1CCc2ccccc21 (centres undefined) | inconclusive: 3.98 µM [inhibitor, single point]
Cc1cc2ccccc2n2c(SCC(=O)Nc3ccc(S(=O)(=O)N4CCC(C)CC4)cc3)nnc12 | inconclusive: 5.62 µM [inhibitor, full curve, poor fit]
